# Source: the supplement of paper PMC8728848
# The list shows a part of the results.
# B1: LEA (Lycopersicon esculentum) (protein)
# chain: NEVFDVPMNETIGVESINASVGGYPRCGAQGDGGNCPSGMCCSVWGWCGKTYGYCAPQNCQKQCPAPYPEGRCGWQADGKSCPNGKCCSYGGWCGTTSDYCARQNCQKQCILPSPPPPPPPPPGFPRPECGLQKNGERCTKPGECCSIWGLCGATYKYCDPQHCQKQCSAPFPPGRCGWQADGRPCPTGQCCSFSGWCGTTSAHCTYPQCVSQCNDPRFPSSLNNRIQSFML
# Columns and labels:
# Test in all cases: glycan array binding signal (z-score within array); higher = stronger binding
# Conditions in all cases: glycan notation: IUPAC condensed, linker removed
# [1] = biological target: Man(a1-3)[Man(a1-6)]Man(a1-6)[Man(a1-3)]Man(b1-4)GlcNAc(b1-4)GlcNAc
# Procedure, shortened: (§1)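 Arrays were curated from the Consortium for Functional Glycomics database, 3228 in total, and kept only where the protein sequence was available. Binding is expressed as a within-array Z-score. This score was averaged across arrays of the same protein sequence at different concentrations or buffers and across linkers, and negative values can be read as non-binding.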
# [2] = biological target: Man(a1-3)[Man(a1-6)]Man(b1-4)GlcNAc(b1-4)GlcNAc
# Procedure, shortened: as §1
# Man(b1-4)GlcNAc = biological target: Man(b1-4)GlcNAc
# Procedure, shortened: as §1
# Neu5Ac(a2-3)Gal = biological target: Neu5Ac(a2-3)Gal
# Procedure, shortened: as §1
# [3] = biological target: Neu5Ac(a2-3)Gal(b1-3)GalNAc
# Procedure, shortened: as §1
# [4] = biological target: Neu5Ac(a2-3)Gal(b1-3)GalNAc(b1-3)Gal(a1-4)Gal(b1-4)Glc
# Procedure, shortened: as §1
# [5] = biological target: Neu5Ac(a2-3)Gal(b1-3)GalNAc(b1-4)[Neu5Ac(a2-3)]Gal(b1-4)Glc
# Procedure, shortened: as §1
# [6] = biological target: Neu5Ac(a2-3)Gal(b1-3)GalNAc6S
# Procedure, shortened: as §1
# [7] = biological target: Neu5Ac(a2-3)Gal(b1-3)GlcNAc
# Procedure, shortened: as §1
# [8] = biological target: Neu5Ac(a2-3)Gal(b1-3)GlcNAc(b1-3)Gal(b1-3)GlcNAc
# Procedure, shortened: as §1
# [9] = biological target: Neu5Ac(a2-3)Gal(b1-3)GlcNAc(b1-3)Gal(b1-4)GlcNAc
# Procedure, shortened: as §1
# [10] = biological target: Neu5Ac(a2-3)Gal(b1-3)GlcNAc6S
# Procedure, shortened: as §1
# [11] = biological target: Neu5Ac(a2-3)Gal(b1-3)[Fuc(a1-4)]GlcNAc
# Procedure, shortened: as §1
# [12] = biological target: Neu5Ac(a2-3)Gal(b1-3)[Fuc(a1-4)]GlcNAc(b1-3)Gal(b1-4)[Fuc(a1-3)]GlcNAc
# Procedure, shortened: as §1
# [13] = biological target: Neu5Ac(a2-3)Gal(b1-3)[Neu5Ac(a2-3)Gal(b1-4)]GlcNAc
# Procedure, shortened: as §1
# [14] = biological target: Neu5Ac(a2-3)Gal(b1-3)[Neu5Ac(a2-6)]GalNAc
# Procedure, shortened: as §1
# Neu5Ac(a2-3)Gal(b1-4)Glc = biological target: Neu5Ac(a2-3)Gal(b1-4)Glc
# Procedure, shortened: as §1
# [15] = biological target: Neu5Ac(a2-3)Gal(b1-4)GlcNAc
# Procedure, shortened: as §1
# [16] = biological target: Neu5Ac(a2-3)Gal(b1-4)GlcNAc(b1-3)Gal(b1-3)GlcNAc
# Procedure, shortened: as §1
# [17] = biological target: Neu5Ac(a2-3)Gal(b1-4)GlcNAc(b1-3)Gal(b1-4)GlcNAc
# Procedure, shortened: as §1
# [18] = biological target: Neu5Ac(a2-3)Gal(b1-4)GlcNAc(b1-3)Gal(b1-4)GlcNAc(b1-3)Gal(b1-4)GlcNAc
# Procedure, shortened: as §1
# [19] = biological target: Neu5Ac(a2-3)Gal(b1-4)GlcNAc(b1-3)Gal(b1-4)[Fuc(a1-3)]GlcNAc
# Procedure, shortened: as §1
# [20] = biological target: Neu5Ac(a2-3)Gal(b1-4)GlcNAc(b1-6)[Gal(b1-3)]GalNAc
# Procedure, shortened: as §1
# [21] = biological target: Neu5Ac(a2-3)Gal(b1-4)GlcNAc6S
# Procedure, shortened: as §1
# [22] = biological target: Neu5Ac(a2-3)Gal(b1-4)[Fuc(a1-3)]GlcNAc
# Procedure, shortened: as §1
# [23] = biological target: Neu5Ac(a2-3)Gal(b1-4)[Fuc(a1-3)]GlcNAc(b1-3)Gal
# Procedure, shortened: as §1
# [24] = biological target: Neu5Ac(a2-3)Gal(b1-4)[Fuc(a1-3)]GlcNAc(b1-3)Gal(b1-4)GlcNAc
# Procedure, shortened: as §1
# [25] = biological target: Neu5Ac(a2-3)Gal(b1-4)[Fuc(a1-3)]GlcNAc(b1-3)Gal(b1-4)[Fuc(a1-3)]GlcNAc(b1-3)Gal(b1-4)[Fuc(a1-3)]GlcNAc
# Procedure, shortened: as §1
# [26] = biological target: Neu5Ac(a2-3)Gal(b1-4)[Fuc(a1-3)]GlcNAc6S
# Procedure, shortened: as §1
# [27] = biological target: Neu5Ac(a2-3)Gal6S(b1-4)GlcNAc
# Procedure, shortened: as §1
# [28] = biological target: Neu5Ac(a2-3)Gal6S(b1-4)[Fuc(a1-3)]GlcNAc
# Procedure, shortened: as §1
# Neu5Ac(a2-3)GalNAc = biological target: Neu5Ac(a2-3)GalNAc
# Procedure, shortened: as §1
# [29] = biological target: Neu5Ac(a2-3)GalNAc(b1-4)GlcNAc
# Procedure, shortened: as §1
# [30] = biological target: Neu5Ac(a2-3)[GalNAc(b1-4)]Gal(b1-4)Glc
# Procedure, shortened: as §1
# [31] = biological target: Neu5Ac(a2-3)[GalNAc(b1-4)]Gal(b1-4)GlcNAc
# Procedure, shortened: as §1
# [32] = biological target: Neu5Ac(a2-3)[Neu5Ac(a2-6)]GalNAc
# Procedure, shortened: as §1
# [33] = biological target: Neu5Ac(a2-6)Gal(b1-4)GlcNAc
# Procedure, shortened: as §1
# [34] = biological target: Neu5Ac(a2-6)Gal(b1-4)GlcNAc(b1-2)Man(a1-3)[Neu5Ac(a2-6)Gal(b1-4)GlcNAc(b1-2)Man(a1-6)]Man(b1-4)GlcNAc(b1-4)GlcNAc
# Procedure, shortened: as §1
# [35] = biological target: Neu5Ac(a2-6)Gal(b1-4)GlcNAc(b1-3)Gal(b1-4)GlcNAc
# Procedure, shortened: as §1
# [36] = biological target: Neu5Ac(a2-6)Gal(b1-4)GlcNAc(b1-3)Gal(b1-4)[Fuc(a1-3)]GlcNAc(b1-3)Gal(b1-4)[Fuc(a1-3)]GlcNAc
# Procedure, shortened: as §1
# [37] = biological target: Neu5Ac(a2-6)Gal(b1-4)GlcNAc6S
# Procedure, shortened: as §1
# Neu5Ac(a2-6)GalNAc = biological target: Neu5Ac(a2-6)GalNAc
# Procedure, shortened: as §1
# [38] = biological target: Neu5Ac(a2-6)GalNAc(b1-4)GlcNAc
# Procedure, shortened: as §1
# Neu5Ac(a2-8)Neu5Ac = biological target: Neu5Ac(a2-8)Neu5Ac
# Procedure, shortened: as §1
# [39] = biological target: Neu5Ac(a2-8)Neu5Ac(a2-3)Gal(b1-4)Glc
# Procedure, shortened: as §1
# [40] = biological target: Neu5Ac(a2-8)Neu5Ac(a2-3)[GalNAc(b1-4)]Gal(b1-4)Glc
# Procedure, shortened: as §1
# [41] = biological target: Neu5Ac(a2-8)Neu5Ac(a2-8)Neu5Ac
# Procedure, shortened: as §1
# [42] = biological target: Neu5Ac(a2-8)Neu5Ac(a2-8)Neu5Ac(a2-3)Gal(b1-4)Glc
# Procedure, shortened: as §1
# [43] = biological target: Neu5Ac(a2-8)Neu5Ac(a2-8)Neu5Ac(a2-3)[GalNAc(b1-4)]Gal(b1-4)Glc
# Procedure, shortened: as §1
# [44] = biological target: Neu5Ac(a2-8)Neu5Ac(a2-8)Neu5Ac(a2-8)Neu5Ac(a2-3)[GalNAc(b1-4)]Gal(b1-4)Glc
# Procedure, shortened: as §1
# [45] = biological target: Neu5Ac9Ac(a2-6)Gal(b1-4)GlcNAc
# Procedure, shortened: as §1
# [46] = biological target: Neu5Gc(a2-3)Gal(b1-3)GlcNAc
# Procedure, shortened: as §1
# [47] = biological target: Neu5Gc(a2-3)Gal(b1-3)[Fuc(a1-4)]GlcNAc
# Procedure, shortened: as §1
# Neu5Gc(a2-3)Gal(b1-4)Glc = biological target: Neu5Gc(a2-3)Gal(b1-4)Glc
# Procedure, shortened: as §1
# [48] = biological target: Neu5Gc(a2-3)Gal(b1-4)GlcNAc
# Procedure, shortened: as §1
# [49] = biological target: Neu5Gc(a2-3)Gal(b1-4)[Fuc(a1-4)]GlcNAc
# Procedure, shortened: as §1
# [50] = biological target: Neu5Gc(a2-6)Gal(b1-4)GlcNAc
# Procedure, shortened: as §1
# Neu5Gc(a2-6)GalNAc = biological target: Neu5Gc(a2-6)GalNAc
# Procedure, shortened: as §1
binder,measurement,setting,value
B1,glycan array binding signal (z-score),[1],0.948
same,glycan array binding signal (z-score),[2],1.87
same,glycan array binding signal (z-score),Man(b1-4)GlcNAc,-0.51
same,glycan array binding signal (z-score),Neu5Ac(a2-3)Gal,-0.526
same,glycan array binding signal (z-score),[3],-0.56
same,glycan array binding signal (z-score),[4],-0.55
same,glycan array binding signal (z-score),[5],-0.518
same,glycan array binding signal (z-score),[6],-0.466
same,glycan array binding signal (z-score),[7],-0.511
same,glycan array binding signal (z-score),[8],-0.547
same,glycan array binding signal (z-score),[9],2.06
same,glycan array binding signal (z-score),[10],-0.422
same,glycan array binding signal (z-score),[11],-0.551
same,glycan array binding signal (z-score),[12],-0.384
same,glycan array binding signal (z-score),[13],-0.471
same,glycan array binding signal (z-score),[14],-0.555
same,glycan array binding signal (z-score),Neu5Ac(a2-3)Gal(b1-4)Glc,-0.547
same,glycan array binding signal (z-score),[15],1.57
same,glycan array binding signal (z-score),[16],-0.129
same,glycan array binding signal (z-score),[17],1.63
same,glycan array binding signal (z-score),[18],1.44
same,glycan array binding signal (z-score),[19],-0.542
same,glycan array binding signal (z-score),[20],-0.523
same,glycan array binding signal (z-score),[21],1.72
same,glycan array binding signal (z-score),[22],0.885
same,glycan array binding signal (z-score),[23],-0.553
same,glycan array binding signal (z-score),[24],1.81
same,glycan array binding signal (z-score),[25],-0.54
same,glycan array binding signal (z-score),[26],-0.509
same,glycan array binding signal (z-score),[27],-0.537
same,glycan array binding signal (z-score),[28],-0.553
same,glycan array binding signal (z-score),Neu5Ac(a2-3)GalNAc,-0.476
same,glycan array binding signal (z-score),[29],1.42
same,glycan array binding signal (z-score),[30],-0.536
same,glycan array binding signal (z-score),[31],1.75
same,glycan array binding signal (z-score),[32],-0.558
same,glycan array binding signal (z-score),[33],-0.556
same,glycan array binding signal (z-score),[34],-0.502
same,glycan array binding signal (z-score),[35],1.84
same,glycan array binding signal (z-score),[36],-0.529
same,glycan array binding signal (z-score),[37],-0.533
same,glycan array binding signal (z-score),Neu5Ac(a2-6)GalNAc,-0.565
same,glycan array binding signal (z-score),[38],-0.513
same,glycan array binding signal (z-score),Neu5Ac(a2-8)Neu5Ac,-0.559
same,glycan array binding signal (z-score),[39],-0.541
same,glycan array binding signal (z-score),[40],-0.525
same,glycan array binding signal (z-score),[41],-0.477
same,glycan array binding signal (z-score),[42],-0.559
same,glycan array binding signal (z-score),[43],-0.545
same,glycan array binding signal (z-score),[44],-0.554
same,glycan array binding signal (z-score),[45],-0.54
same,glycan array binding signal (z-score),[46],-0.558
same,glycan array binding signal (z-score),[47],-0.548
same,glycan array binding signal (z-score),Neu5Gc(a2-3)Gal(b1-4)Glc,-0.122
same,glycan array binding signal (z-score),[48],1.61
same,glycan array binding signal (z-score),[49],-0.041
same,glycan array binding signal (z-score),[50],-0.558
same,glycan array binding signal (z-score),Neu5Gc(a2-6)GalNAc,-0.545
